Experimental data published in patent US20230348603A1 (VERSEAU THERAPEUTICS, published 2023).

T1: Cynomolgus Monkey VSIG4-L-His (cynomolgus monkey)
T1 construct: ECD with His tag; also called cyVSIG4-L; cyno VSIG4-L-His
T1 chain: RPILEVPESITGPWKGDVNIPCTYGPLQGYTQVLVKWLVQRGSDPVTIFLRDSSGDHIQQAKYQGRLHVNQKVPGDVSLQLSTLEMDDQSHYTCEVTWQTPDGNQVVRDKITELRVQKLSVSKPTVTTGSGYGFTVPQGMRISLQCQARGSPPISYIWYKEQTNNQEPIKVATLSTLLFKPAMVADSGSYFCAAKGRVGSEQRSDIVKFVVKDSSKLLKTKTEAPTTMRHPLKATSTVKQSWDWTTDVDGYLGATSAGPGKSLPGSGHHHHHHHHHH

T2: Human VSIG4-L-His (human, UniProt Q9Y279 20-283)
T2 construct: long isoform ECD with His tag; also called hVSIG4-L
T2 sequence: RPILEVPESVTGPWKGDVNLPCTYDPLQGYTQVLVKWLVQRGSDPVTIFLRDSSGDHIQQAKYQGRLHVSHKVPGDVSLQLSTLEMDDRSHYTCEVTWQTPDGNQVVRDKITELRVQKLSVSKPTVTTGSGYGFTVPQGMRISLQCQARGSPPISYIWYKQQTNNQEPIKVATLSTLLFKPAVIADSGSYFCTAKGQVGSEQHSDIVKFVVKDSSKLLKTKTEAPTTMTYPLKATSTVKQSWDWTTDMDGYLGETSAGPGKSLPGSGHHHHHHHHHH


What was measured:
[1] = biological target: T1, Cynomolgus Monkey VSIG4-L-His; test: BLI, IgG on AHC sensor, antigen 100 nM
Human VSIG4-L-His = biological target: T2, Human VSIG4-L-His; test: BLI, IgG on AHC sensor, antigen 100 nM

KD relative to parental chimera [1]	KD relative to parental chimera (Human VSIG4-L-His)	Binder
1 fold	1.4 fold	h16E10.B humanized IgG4 (S228P) kappa (antibody) heavy: QVQLVQSGAEVKKPGASVKVSCKASGYTFTNYWLGWVRQAPGQGLEWIGDIYPGGGYTNYNEKFQGRVTLTADTSSSTAYMELSSLRSEDTAVYFCAKFYYYGSSYYFDSWGQGTTVTVSSASTKGPSVFPLAPCSRSTSESTAALGCLVKDYFPEPVTVSWNSGALTSGVHTFPAVLQSSGLYSLSSVVTVPSSSLGTKTYTCNVDHKPSNTKVDKRV[human IgG4 Fc with S228P (EU numbers) not printed] light: DIVMTQSPDSLAVSLGERATINCKSSQSLLNSGNQENYLAWYQQKPGQPPKLLIYGASTRESGVPDRFSGSGSGTDFTLTISSLQAEDVAVYYCQNDHSYPLTFGGGTKLEIKRTVAAPSVFIFPPSDEQLKSGTASVVCLLNNFYPREAKVQWKVDNALQSGNSQESVTEQDSKDSTYSLSSTLTLSKADYEKHKVYACEVTHQGLSSPVTKSFNRGEC
1.4 fold	1 fold	h16E10.A humanized IgG4 (S228P) kappa (antibody) heavy: QVQLVQSGAEVKKPGASVKVSCKASGYTFTNYWLGWVRQAPGQGLEWIGDIYPGGGYTNYNEKFQGRVTLTADTSSSTAYMELSSLRSEDTAVYFCAKFYYYGSSYYFDSWGQGTTVTVSSASTKGPSVFPLAPCSRSTSESTAALGCLVKDYFPEPVTVSWNSGALTSGVHTFPAVLQSSGLYSLSSVVTVPSSSLGTKTYTCNVDHKPSNTKVDKRV[human IgG4 Fc with S228P (EU numbers) not printed] light: DIVLTQSPDSLAVSLGERATINCKSSQSLLNSGNQENYLAWYQQKPGQPPKLLIYGASTRESGVPDRFSGSGSGTDFTLTISSLQAEDVAVYYCQNDHSYPLTFGGGTKLEIKRTVAAPSVFIFPPSDEQLKSGTASVVCLLNNFYPREAKVQWKVDNALQSGNSQESVTEQDSKDSTYSLSSTLTLSKADYEKHKVYACEVTHQGLSSPVTKSFNRGEC
